# This is one part of the list.
# B1: PX9961X-pdi-531-24-531 (Parabacteroides distasonis) (protein)
# chain: DLTEEIHSSVIAENYYNNAGEVMAAMMRPWGHFCGTMQVAQSPWSCNELSSDCAAWPQKGRHGYDNGDWIRLHRHQWIPTDGQVVDAWKKLFEGIGYANNFLTDTENIDFEALQVPMSKAQAQAEMRVYRAYCYWYVMDMFGTAPICEKIGEINPSSKSRAELFAWIEKELNESIPSLSESKTETYGRVSKWGAYALLARLYLNAEIYTGQARWDDCIAACDELAKGGFALDKKWNDTFRADNDKRSTEIIWSIVYDEVYAKGMGWYQRWLHYAHQTGWDLQSGPWNGLVTQPTFYDSFADNDLRKIEGFLIGKQYPRKVDENGNYYYDTTAEPLKGSEEYNGQDLVFVNYIKSMTEGEENSGARSIKYEIQPGTTGDMNNDWVMFRYSEVIYNKAEALMRKNGGKATQEVVDMINSVRQRSFKAEDWEKAKYTTATLTMDEFLAEKGREFAFEGIRRTDLVRFNKFVTTSWWDKTASNEPKRNIFPIPQRQLDANANLSPNEANSLF
# Columns and labels:
# Assay in all cases: glycan array binding signal (z-score within array); higher = stronger binding
# Conditions in all cases: glycan notation: IUPAC condensed, linker removed
# Fuc(a1-2)Gal = molecular target: Fuc(a1-2)Gal
# How it was run: (§1)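 Negative Z-scores can be read as non-binding. The Z-score is calculated within each array and then averaged across arrays of one protein sequence at different concentrations or buffers and across linkers. Arrays, 3228 in all, were curated from the Consortium for Functional Glycomics database and kept only where the protein sequence was available.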
# Fuc(a1-2)Gal(b1-3)GalNAc = molecular target: Fuc(a1-2)Gal(b1-3)GalNAc
# How it was run: as §1
# [1] = molecular target: Fuc(a1-2)Gal(b1-3)GalNAc(a1-3)[Fuc(a1-2)]Gal(b1-4)Glc
# How it was run: as §1
# [2] = molecular target: Fuc(a1-2)Gal(b1-3)GalNAc(a1-3)[Fuc(a1-2)]Gal(b1-4)GlcNAc
# How it was run: as §1
# [3] = molecular target: Fuc(a1-2)Gal(b1-3)GalNAc(b1-3)Gal
# How it was run: as §1
# [4] = molecular target: Fuc(a1-2)Gal(b1-3)GalNAc(b1-3)Gal(a1-4)Gal(b1-4)Glc
# How it was run: as §1
# [5] = molecular target: Fuc(a1-2)Gal(b1-3)GalNAc(b1-4)[Neu5Ac(a2-3)]Gal(b1-4)Glc
# How it was run: as §1
# Fuc(a1-2)Gal(b1-3)GlcNAc = molecular target: Fuc(a1-2)Gal(b1-3)GlcNAc
# How it was run: as §1
# [6] = molecular target: Fuc(a1-2)Gal(b1-3)GlcNAc(b1-2)Man(a1-3)[Fuc(a1-2)Gal(b1-3)GlcNAc(b1-2)Man(a1-6)]Man(b1-4)GlcNAc(b1-4)GlcNAc
# How it was run: as §1
# [7] = molecular target: Fuc(a1-2)Gal(b1-3)GlcNAc(b1-2)Man(a1-3)[Fuc(a1-2)Gal(b1-3)GlcNAc(b1-2)Man(a1-6)]Man(b1-4)GlcNAc(b1-4)[Fuc(a1-6)]GlcNAc
# How it was run: as §1
# [8] = molecular target: Fuc(a1-2)Gal(b1-3)GlcNAc(b1-3)Gal(b1-4)Glc
# How it was run: as §1
# [9] = molecular target: Fuc(a1-2)Gal(b1-3)GlcNAc(b1-3)GalNAc
# How it was run: as §1
# [10] = molecular target: Fuc(a1-2)Gal(b1-3)GlcNAc(b1-3)[Fuc(a1-2)Gal(b1-3)GlcNAc(b1-6)]GalNAc
# How it was run: as §1
# [11] = molecular target: Fuc(a1-2)Gal(b1-3)GlcNAc(b1-3)[Gal(b1-4)GlcNAc(b1-6)]Gal(b1-4)Glc
# How it was run: as §1
# [12] = molecular target: Fuc(a1-2)Gal(b1-3)GlcNAc(b1-3)[Neu5Ac(a2-6)Gal(b1-4)GlcNAc(b1-6)]Gal(b1-4)Glc
# How it was run: as §1
# [13] = molecular target: Fuc(a1-2)Gal(b1-3)GlcNAc6S
# How it was run: as §1
# [14] = molecular target: Fuc(a1-2)Gal(b1-3)[Fuc(a1-4)]GlcNAc
# How it was run: as §1
# [15] = molecular target: Fuc(a1-2)Gal(b1-3)[Fuc(a1-4)]GlcNAc(b1-2)Man(a1-3)[Fuc(a1-2)Gal(b1-3)[Fuc(a1-4)]GlcNAc(b1-2)Man(a1-3)]Man(b1-4)GlcNAc(b1-4)GlcNAc
# How it was run: as §1
# [16] = molecular target: Fuc(a1-2)Gal(b1-3)[Fuc(a1-4)]GlcNAc(b1-2)Man(a1-3)[Fuc(a1-2)Gal(b1-3)[Fuc(a1-4)]GlcNAc(b1-2)Man(a1-6)]Man(b1-4)GlcNAc(b1-4)[Fuc(a1-6)]GlcNAc(b1-4)[Fuc(a1-6)]GlcNAc
# How it was run: as §1
# [17] = molecular target: Fuc(a1-2)Gal(b1-3)[Fuc(a1-4)]GlcNAc(b1-3)[Fuc(a1-3)[Gal(b1-4)]GlcNAc(b1-6)]Gal(b1-4)Glc
# How it was run: as §1
# [18] = molecular target: Fuc(a1-2)Gal(b1-3)[Fuc(a1-4)]GlcNAc(b1-3)[Gal(b1-4)GlcNAc(b1-6)]Gal(b1-4)Glc
# How it was run: as §1
# Fuc(a1-2)Gal(b1-4)Glc = molecular target: Fuc(a1-2)Gal(b1-4)Glc
# How it was run: as §1
# Fuc(a1-2)Gal(b1-4)Glc6S = molecular target: Fuc(a1-2)Gal(b1-4)Glc6S
# How it was run: as §1
# Fuc(a1-2)Gal(b1-4)GlcNAc = molecular target: Fuc(a1-2)Gal(b1-4)GlcNAc
# How it was run: as §1
# [19] = molecular target: Fuc(a1-2)Gal(b1-4)GlcNAc(b1-2)Man
# How it was run: as §1
# [20] = molecular target: Fuc(a1-2)Gal(b1-4)GlcNAc(b1-2)Man(a1-3)[Fuc(a1-2)Gal(b1-4)GlcNAc(b1-2)Man(a1-6)]Man(b1-4)GlcNAc(b1-4)GlcNAc
# How it was run: as §1
# [21] = molecular target: Fuc(a1-2)Gal(b1-4)GlcNAc(b1-2)Man(a1-3)[Fuc(a1-2)Gal(b1-4)GlcNAc(b1-2)Man(a1-6)]Man(b1-4)GlcNAc(b1-4)[Fuc(a1-6)]GlcNAc
# How it was run: as §1
# [22] = molecular target: Fuc(a1-2)Gal(b1-4)GlcNAc(b1-2)[Fuc(a1-2)Gal(b1-4)GlcNAc(b1-4)]Man(a1-3)[Fuc(a1-2)Gal(b1-4)GlcNAc(b1-2)Man(a1-6)]Man(b1-4)GlcNAc(b1-4)GlcNAc
# How it was run: as §1
# [23] = molecular target: Fuc(a1-2)Gal(b1-4)GlcNAc(b1-3)Gal(b1-4)GlcNAc
# How it was run: as §1
# [24] = molecular target: Fuc(a1-2)Gal(b1-4)GlcNAc(b1-3)Gal(b1-4)GlcNAc(b1-2)Man(a1-3)[Fuc(a1-2)Gal(b1-4)GlcNAc(b1-3)Gal(b1-4)GlcNAc(b1-2)Man(a1-6)]Man(b1-4)GlcNAc(b1-4)GlcNAc
# How it was run: as §1
# [25] = molecular target: Fuc(a1-2)Gal(b1-4)GlcNAc(b1-3)Gal(b1-4)GlcNAc(b1-3)Gal(b1-4)GlcNAc
# How it was run: as §1
# [26] = molecular target: Fuc(a1-2)Gal(b1-4)GlcNAc(b1-3)GalNAc
# How it was run: as §1
# [27] = molecular target: Fuc(a1-2)Gal(b1-4)GlcNAc(b1-3)[Fuc(a1-2)Gal(b1-4)GlcNAc(b1-6)]GalNAc
# How it was run: as §1
# [28] = molecular target: Fuc(a1-2)Gal(b1-4)GlcNAc(b1-3)[Fuc(a1-3)[Gal(b1-4)]GlcNAc(b1-6)]Gal(b1-4)Glc
# How it was run: as §1
# [29] = molecular target: Fuc(a1-2)Gal(b1-4)GlcNAc(b1-6)GalNAc
# How it was run: as §1
# [30] = molecular target: Fuc(a1-2)Gal(b1-4)GlcNAc6S
# How it was run: as §1
# [31] = molecular target: Fuc(a1-2)Gal(b1-4)[Fuc(a1-3)]GlcNAc
# How it was run: as §1
# [32] = molecular target: Fuc(a1-2)Gal(b1-4)[Fuc(a1-3)]GlcNAc(b1-2)Man(a1-3)[Fuc(a1-2)Gal(b1-4)[Fuc(a1-3)]GlcNAc(b1-2)Man(a1-6)]Man(b1-4)GlcNAc(b1-4)[Fuc(a1-6)]GlcNAc
# How it was run: as §1
# [33] = molecular target: Fuc(a1-2)Gal(b1-4)[Fuc(a1-3)]GlcNAc(b1-2)[Fuc(a1-2)Gal(b1-4)[Fuc(a1-3)]GlcNAc(b1-4)]Man(a1-3)[Fuc(a1-2)Gal(b1-4)[Fuc(a1-3)]GlcNAc(b1-2)Man(a1-6)]Man(b1-4)GlcNAc(b1-4)GlcNAc
# How it was run: as §1
# [34] = molecular target: Fuc(a1-2)Gal(b1-4)[Fuc(a1-3)]GlcNAc(b1-3)Gal(b1-4)[Fuc(a1-3)]GlcNAc
# How it was run: as §1
# [35] = molecular target: Fuc(a1-2)Gal(b1-4)[Fuc(a1-3)]GlcNAc(b1-3)Gal(b1-4)[Fuc(a1-3)]GlcNAc(b1-3)Gal(b1-4)[Fuc(a1-3)]GlcNAc
# How it was run: as §1
# [36] = molecular target: Fuc(a1-2)Gal(b1-4)[Fuc(a1-3)]GlcNAc(b1-3)GalNAc
# How it was run: as §1
# [37] = molecular target: Fuc(a1-2)Gal(b1-4)[Fuc(a1-3)]GlcNAc(b1-3)[Neu5Ac(a2-6)Gal(b1-4)GlcNAc(b1-6)]Gal(b1-4)Glc
# How it was run: as §1
# [38] = molecular target: Fuc(a1-2)Gal3S(b1-4)GlcNAc
# How it was run: as §1
# [39] = molecular target: Fuc(a1-2)Gal6S(b1-3)GlcNAc
# How it was run: as §1
binder,measurement,setting,value
B1,glycan array binding signal (z-score),Fuc(a1-2)Gal,-0.236
same,glycan array binding signal (z-score),Fuc(a1-2)Gal(b1-3)GalNAc,-0.286
same,glycan array binding signal (z-score),[1],-0.204
same,glycan array binding signal (z-score),[2],0.763
same,glycan array binding signal (z-score),[3],0.258
same,glycan array binding signal (z-score),[4],-0.522
same,glycan array binding signal (z-score),[5],-0.435
same,glycan array binding signal (z-score),Fuc(a1-2)Gal(b1-3)GlcNAc,-0.496
same,glycan array binding signal (z-score),[6],0.611
same,glycan array binding signal (z-score),[7],-0.139
same,glycan array binding signal (z-score),[8],0.003
same,glycan array binding signal (z-score),[9],-0.17
same,glycan array binding signal (z-score),[10],0.427
same,glycan array binding signal (z-score),[11],-0.824
same,glycan array binding signal (z-score),[12],-0.479
same,glycan array binding signal (z-score),[13],-0.443
same,glycan array binding signal (z-score),[14],-0.944
same,glycan array binding signal (z-score),[15],0.026
same,glycan array binding signal (z-score),[16],-0.23
same,glycan array binding signal (z-score),[17],-0.666
same,glycan array binding signal (z-score),[18],-0.572
same,glycan array binding signal (z-score),Fuc(a1-2)Gal(b1-4)Glc,0.128
same,glycan array binding signal (z-score),Fuc(a1-2)Gal(b1-4)Glc6S,-0.94
same,glycan array binding signal (z-score),Fuc(a1-2)Gal(b1-4)GlcNAc,-0.444
same,glycan array binding signal (z-score),[19],0.292
same,glycan array binding signal (z-score),[20],1.28
same,glycan array binding signal (z-score),[21],-0.118
same,glycan array binding signal (z-score),[22],-0.004
same,glycan array binding signal (z-score),[23],0.123
same,glycan array binding signal (z-score),[24],1.07
same,glycan array binding signal (z-score),[25],0.206
same,glycan array binding signal (z-score),[26],-0.684
same,glycan array binding signal (z-score),[27],-0.351
same,glycan array binding signal (z-score),[28],-0.218
same,glycan array binding signal (z-score),[29],0.242
same,glycan array binding signal (z-score),[30],0.154
same,glycan array binding signal (z-score),[31],-0.404
same,glycan array binding signal (z-score),[32],-0.289
same,glycan array binding signal (z-score),[33],1.03
same,glycan array binding signal (z-score),[34],-0.915
same,glycan array binding signal (z-score),[35],0.059
same,glycan array binding signal (z-score),[36],0.289
same,glycan array binding signal (z-score),[37],-0.307
same,glycan array binding signal (z-score),[38],-0.039
same,glycan array binding signal (z-score),[39],-0.189
